Test results taken from PubChem BioAssay AID1671193 (National Center for Advancing Translational Sciences (NCATS), 2021).
The whole screen tested about 150,000 compounds, of which about 180 (0.12%) were called active. This list was built around the results that the source calls inconclusive (neither active nor inactive); the mix of calls is not that of the screen. The call rests on the fitted dose curve; in most records, active means well fitted cell-killing curve with a large enough effect; inconclusive means small, poorly fitted or top-dose-only effect, or effect the other way; inactive means flat fitted curve, though single readings scatter. Where the call is inconclusive, the potency comes from a doubtful curve fit.

assay: GF-AFC viability counterscreen for inhibitors of alpha-synuclein gene (SNCA) expression; conditions: HEK-293-SNCA-luc viability, GF-AFC fluorescence, 24 h; activity change, negative = cytotoxicity: at 57.1 µM (top of the series) unless noted; further: nearly all actives have a fitted effect of over 30% in size;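 on activity change, negative = cytotoxicity: 0% = DMSO-treated cells and -100% = medium-only wells without cells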
Summary of the method: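 Cytotoxicity counterscreen: after 24 h compound treatment of genome-edited SNCA-luciferase HEK-293 cells, live-cell protease substrate GF-AFC read by fluorescence after 30 min; activity scaled between DMSO (0%) and medium-only (-100%), curves Hill-fitted.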
Potency means the concentration at half of the fitted maximal effect; tags describe the fitted curve by direction and shape.

Structure (SMILES) | Potency | activity change, negative = cytotoxicity
COC(=O)c1ccc(C2Nc3c(C)cccc3-c3cc(C)nn32)cc1 (centres undefined) | inconclusive: 12.6 µM [rising, partial curve] | –
CC(=O)c1ccc(N2CCN(c3ccc4cc(S(=O)(=O)N5CCCCC5)ccc4n3)CC2)cc1 | inconclusive: 25.1 µM [cytotoxic, single point] | –
COc1ccc(F)cc1-c1cccc(CN)c1 | – | inactive: 1.28% [at 87.6 µM]
COCC(=O)N(C[C@H]1O[C@@H](CC(=O)NC(C)C)[C@H](O)[C@@H]1O)C[C@H]1O[C@@H](CC(=O)NC(C)C)[C@H](O)[C@@H]1O | inconclusive: 3.16 µM [rising, full curve, poor fit] | –
COc1ccc(Cc2nc3nccc(-c4ccc(F)cc4OC)n3n2)cc1 | – | inactive: 8.08%
COc1ccc(C)cc1NC(=O)CC1NCCNC1=O (centres undefined) | inconclusive: 8.91 µM [cytotoxic, partial curve, poor fit] | –
O=C(Nc1nc2c(s1)CCC2)C1CC(=O)N(c2n[nH]c3cc(Br)ccc23)C1 (centres undefined) | inconclusive: 8.91 µM [cytotoxic, partial curve, poor fit] | –
CC1CCCC[C@H]2C(=O)C=C[C@H](O)[C@@H]2CC(=O)O1 (some centres undefined) | active: 9.47 µM | –
CC(C)CCN1CCc2c(n(CCOc3ccccc3)n(-c3ccccc3)c2=O)C1 | inconclusive: 20 µM [cytotoxic, partial curve, poor fit] | –
O=C(Cn1c(=O)n(Cc2ccccc2)c(=O)c2sc3ccccc3c21)Nc1ccccc1 | inconclusive: 39.8 µM [cytotoxic, single point] | –
COCCNC(=O)C1CCCN(Cc2cccc(-c3ccc(F)cc3F)c2)C1 (centres undefined) | – | inactive: 8.58%
Cc1ccsc1-c1[nH]nc2ncc(-c3ccccc3F)nc12 | – | inactive: -8.46% [at 87.6 µM]
O=C(NC1CCN(Cc2cccc(-c3cccs3)c2)CC1)c1ccccc1F | inconclusive: 39.8 µM [cytotoxic, single point] | –
COc1ccc(-c2cc(-c3ccccc3)nc(SCC(=O)Nc3ccccc3F)c2C#N)cc1 | inconclusive: 7.08 µM [cytotoxic, single point] | –
COc1ccc(CCN2C(=O)c3[nH]nc(-c4ccccc4O)c3C2c2ccc(OC)c(OC)c2)cc1 (centres undefined) | inconclusive: 39.8 µM [cytotoxic, single point] | –
COc1ccc(CNC(=O)N2CCOc3ccc(N(C)C)cc3C2)cc1 | – | inactive: -14.2%
Cc1ccc(C(=O)NCC(c2ccc3c(c2)OCO3)N2CCOCC2)cc1 (centres undefined) | inconclusive: 17.8 µM [cytotoxic, partial curve, poor fit] | –
CN1C[C@@H](NC(=O)CC(C)(C)C)C[C@H]1c1nc(-c2ccc3c(c2)OCO3)no1 | inconclusive: 56.2 µM [cytotoxic, single point] | –
O=C(NC1CCN(c2cc(C(F)(F)F)ncn2)CC1)c1ccc(F)cc1 | inconclusive: 7.94 µM [cytotoxic, partial curve] | –
Cc1ccn2c(Nc3ccc(C(C)C)cc3)c(-c3cccnc3)nc2c1 | – | inactive: -7%

Structure (SMILES) | Potency | activity change, negative = cytotoxicity
COc1ccc(-c2nc(-c3c(C)noc3C)cc3c2cc(C)n3CCN(C)C)cc1OC | – | inactive: -21.1% [at 87.6 µM]
COc1ccc(-c2nc3cnc(N4CCN(C)CC4)nc3n(Cc3cccc(OC)c3)c2=O)cc1 | inconclusive: 35.5 µM [rising, partial curve, poor fit] | –
COc1ncc2nc(-c3cn(C)c4ccccc34)c(=O)n(CCc3ccccc3)c2n1 | inconclusive: 6.31 µM [rising, single point] | –
COc1ccc(CCc2nc3c(C)c(-c4c(C)noc4C)c(C)cc3n2CCN2CCOCC2)cc1 | inconclusive: 11.9 µM [cytotoxic, partial curve, poor fit] | –
CCn1nc(C)c2c(-c3ccccc3)cc(=O)n(C(C)C(=O)NCc3ccccc3OC)c21 (centres undefined) | inconclusive: 28.2 µM [cytotoxic, single point] | –
COc1cccc(NC(=O)Cn2cc(S(=O)(=O)Cc3ccccc3F)c3ccccc32)c1 | inconclusive: 28.2 µM [cytotoxic, partial curve, poor fit] | –
COc1ccc(CCC(=O)N2CCC3(CC2)CC(CC(=O)N2CCOCC2)CCO3)cc1 (centres undefined) | – | inactive: -11.9%
COc1ccccc1C1C=C(c2ccc(C(C)C)cc2)Nc2nnnn21 (centres undefined) | inconclusive: 28.2 µM [rising, single point] | –
Fc1ccc(-n2ncc3c(Nc4cccc(Cl)c4)ncnc32)cc1 | inconclusive: 35.5 µM [cytotoxic, single point] | –
CC1=C[C@@H](CN2C(=O)C(C)=C(C)C2=O)[C@H](C(C)C)C[C@H]1Cc1nc2ccc(C)cc2[nH]1 | inconclusive: 35.5 µM [cytotoxic, single point] | –
CN1CCN(c2ncc3nc(-c4cc(F)cc(F)c4)c(=O)n(Cc4cccs4)c3n2)CC1 | inconclusive: 3.16 µM [rising, partial curve, poor fit] | –
CCOCc1cc(CN2CCN(c3ccccc3OC)CC2)c(O)c2ncccc12 | inconclusive: 4.47 µM [cytotoxic, full curve] | –
Cc1ccc(C)c(C(=O)N2CCN(c3cc(-c4ccc(Cl)cc4)[nH]n3)CC2)c1 | inconclusive: 39.8 µM [cytotoxic, single point] | –
CCOc1ccc(N2C(=O)c3[nH]nc(-c4ccc(OC)cc4)c3C2c2cccs2)cc1 (centres undefined) | inconclusive: 35.5 µM [cytotoxic, single point] | –
O=c1c(-c2cccs2)nc2cnc(Oc3ccccc3)nc2n1Cc1cccs1 | inconclusive: 31.6 µM [rising, single point] | –
COc1ccc(-c2c(C)c3ccc(O)c(CN4CCCC(C)C4)c3oc2=O)cc1OC (centres undefined) | inconclusive: 22.4 µM [rising, partial curve] | –
Cc1cnc(Nc2ccc(OCCN3CCCC3)cc2)nc1Nc1cccc(S(=O)(=O)NC(C)(C)C)c1 | inconclusive: 3.77 µM [cytotoxic, full curve, poor fit] | –
Cc1ccc(C)c(Nc2nnc(-c3ccc(C)c(S(=O)(=O)NCC4CCCO4)c3)c3ccccc23)c1 (centres undefined) | inconclusive: 31.6 µM [cytotoxic, single point] | –
CC(CO[C@@H]1O[C@H](COC(=O)/C=C/c2ccc(O)c(O)c2)[C@@H](O)[C@H](O)[C@H]1O)C1(O)COC(=O)C1 (some centres undefined) | inconclusive: 2.32 µM [cytotoxic, single point] | –
